# Results published in the supplement of paper PMC11417369.
# Some of the results follow.
# Test system: PfHDP1 homeodomain (GST-tagged)
# Test: gcPBM binding intensity (ln(normalized median fluorescence intensity)); higher = stronger DNA binding
# Method in brief: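 Alexa488 anti-GST antibody, scanned at 488 nm, detected GST-tagged P. falciparum DNA-binding domains that had been expressed in E. coli and incubated for 1 h on an Agilent 4 × 180k array. The array carried primer-extended double-stranded 36-bp intergenic genomic probes and negative controls. Binding intensity is the highest Masliner-normalised natural-log median intensity across replicate spots of either orientation of each probe.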
row,Sequence,gcPBM binding intensity (ln)
1,GTTTGGTGGTGTTTTGGTACGTACGGGGGTGTATGT [XGTACX_site1211],7.39
2,TTTCCATTTTCTCTATGTACATAAAAATGAGATAAA [XGTACX_site5689],6.62
3,CACACGCACGGACACACACACAAAAAAAAAAAGAAA [CACACA_site6378],7.27
4,AAGACCATATGAATAATGCACACGTTTTAAAATATT [CACACA_site2323],10.1
5,TAAATGTTAAAATTCACACAAATATGTGCGGAATAT [CACACA_site5055],7.11
6,GGAATTTTTATTCGAAGTACTGTTGTGAGTAATAAA [XGTACX_site8599],6.76
7,TGCAAGGAACAACACACACACACATAAATGTATATA [CACACA_site8149],6.75
8,ACCCATTTGATAATAATGCACACCACATATATTTAT [CACACA_site3061],9.94
9,ATATATAATATATACACACACATGTATATATAAATA [CACACA_site1968],6.85
10,TTTGACTAAATTAAATATTAAAGTATGGATTATTCT [CACACA_negctrl_site833],5.98
11,ATATGTATTTATGTATTTATGTATTTTTATATTTTT [CACACA_negctrl_site595],6.37
12,AAAAAAAAAAAACACACACACACATTCAATATAAAA [CACACA_site40],6.62
13,TGGAAAATAAAGTACGCACACAAAAATTCTCTTCAT [CACACA_site2327],6.8
14,ATATTATTTTATGCTACACACATTTTCTCTTATAAA [CACACA_site943],7.25
15,TTCAAACATATTAATTGTACATACAACAAAACCATG [XGTACX_site5149],6.7
16,ATAAGTAATATAATATGTACATATATATATATATAT [XGTACX_site3818],9.23
17,AAGAAATAAATACATACACACATATATATATATATA [CACACA_site3362],9.56
18,AGAATAATTTTATCGGTACACACTGTATGCATAATA [CACACA_site374],7.05
19,ATGCAAAATAAAGAAGCACACAAAAATGAAATATAT [CACACA_site9217],6.87
20,GGAAATTTCAATATTTGTACATATATATATATATAT [XGTACX_site3222],9.34
21,TATATATTGTTATAATGTACATAATATTTTATCTGC [XGTACX_site4983],6.48
22,TACAGATATTTTATTTCACACATTTTATCATTTTCT [CACACA_site5701],6.68

row,Sequence,gcPBM binding intensity (ln)
1,TTCAAAAAAGGAAAGTTGCACTTGATACGCTTATTA [GTGCAC_site9411],7.38
2,TTTTTTATTTTTTGTTATATTTATAATAATTTATGA [XGTACX_negctrl_site260],6.46
3,TACTTTACACATATTTTTAATTATTCTGAATTCAAA [GTGCAC_negctrl_site253],6.79
4,ATATATATATATGTAGTGCATTTTATATATAATATT,9.42
5,TAAAAGTTCACCTGTACACACATATATATATGTACA [CACACA_site1707],6.58
6,TTCTTTATTTTTTCTACACACATTATATATTCAAAG [CACACA_site5866],7.44
7,AAATATTAAATGACAAAAAAAAAAAAAAAAGGGGTT [CACACA_negctrl_site951],6.02
8,TATTTTGAAAATAAAAGTACAAATTTTATATTTAAA [XGTACX_site3238],6.02
9,TATTTATATTCATAATGTACATTCAATTATTGTTTT [XGTACX_site4191],6.76
10,ATATAAAATAATACATGTACATATTATATATATATA [XGTACX_site1082],8.59
11,TATATACGCATTTTTATACACACTTGTTTTATAAAA [CACACA_site727],6.83
12,TTCTATATTTCTTTTTGTACATATAAATTCAAATAA [XGTACX_site2476],6.49
13,TATAATATATTTTAATGTACGTACATCCCGATTAAT [XGTACX_site7651],6.63
14,ATTTTTTTTTCTTAATGTACATACCAAAAAGAAAGA [XGTACX_site5471],6.72
15,TATTAATATATATGTTGTACAAGTTTTTTTTTTTTT [XGTACX_site5865],6.47
16,GATAAAATATGTTGCCGTACATATTCATATACTTAA [XGTACX_site4776],6.35
17,TTTGTCTGCATACGCACACACGTGTACCATCTTATG [CACACA_site4784],7.89
18,ATATTAGTCGAATGATGTACACACATACAAAACATT [XGTACX_site8613],6.65
19,ATCAAATTTGGACATGCATGTGTGTGTAAAACCATG [TGCATGCA_site309],7.91
20,AATATTTTTTAAATGTGTACATAGGTATAGCACACA [XGTACX_site8690],6.67
21,AATTATTCTCTTTTCATTTGAACAATATGCTTAAAA [CACACA_negctrl_site995],6.59
22,GACTGCACTTTAAGCACACAAATATATTTTTTTTAT [CACACA_site1249],7.88
